From publication PMC4336329 (PLoS ONE, 2015)
Among all 310,000 compounds or so, about 14,000 (4.5%) showed an effect of 50% or more. The effect is printed as a negative number. Some of the results follow.

molecular target: human ether-à-go-go-related gene (hERG) potassium channel (human, UniProt Q12809); assay: primary screen, population patch clamp on CHO cells stably expressing hERG
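Further: peak tail current of the secondary pulse compared with the same well before compound.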

human ether-à-go-go-related gene (hERG) potassium channel, sequence (Q12809 whole entry, looked up): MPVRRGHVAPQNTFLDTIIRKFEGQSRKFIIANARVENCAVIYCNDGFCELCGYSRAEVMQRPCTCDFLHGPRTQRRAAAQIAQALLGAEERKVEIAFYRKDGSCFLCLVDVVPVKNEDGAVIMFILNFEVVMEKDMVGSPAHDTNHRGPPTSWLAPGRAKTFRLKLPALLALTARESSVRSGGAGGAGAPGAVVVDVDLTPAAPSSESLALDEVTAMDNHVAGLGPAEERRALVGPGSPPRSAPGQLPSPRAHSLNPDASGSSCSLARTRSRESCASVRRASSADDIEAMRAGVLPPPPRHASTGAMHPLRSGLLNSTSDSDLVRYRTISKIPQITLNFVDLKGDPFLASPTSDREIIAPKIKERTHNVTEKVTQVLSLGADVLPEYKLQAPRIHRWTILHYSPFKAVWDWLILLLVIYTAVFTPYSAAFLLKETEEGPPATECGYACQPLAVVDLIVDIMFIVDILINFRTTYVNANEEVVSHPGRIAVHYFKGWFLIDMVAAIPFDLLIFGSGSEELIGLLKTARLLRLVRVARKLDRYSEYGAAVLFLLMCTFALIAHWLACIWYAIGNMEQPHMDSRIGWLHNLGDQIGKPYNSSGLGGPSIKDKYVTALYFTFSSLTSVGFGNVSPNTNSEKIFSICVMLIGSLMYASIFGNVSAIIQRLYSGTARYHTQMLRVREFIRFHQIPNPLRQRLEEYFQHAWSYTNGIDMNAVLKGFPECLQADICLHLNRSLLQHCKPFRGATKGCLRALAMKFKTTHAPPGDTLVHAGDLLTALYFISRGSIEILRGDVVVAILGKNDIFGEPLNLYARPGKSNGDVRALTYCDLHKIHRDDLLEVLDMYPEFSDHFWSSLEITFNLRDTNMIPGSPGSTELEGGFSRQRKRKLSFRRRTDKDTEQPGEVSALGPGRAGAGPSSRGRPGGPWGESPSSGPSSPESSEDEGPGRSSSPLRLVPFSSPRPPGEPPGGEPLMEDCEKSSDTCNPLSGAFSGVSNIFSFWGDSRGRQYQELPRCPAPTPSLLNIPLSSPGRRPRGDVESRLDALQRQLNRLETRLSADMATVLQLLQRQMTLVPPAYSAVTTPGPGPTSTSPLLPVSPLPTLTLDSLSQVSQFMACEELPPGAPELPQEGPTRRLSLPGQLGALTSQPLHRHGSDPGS

Compound | hERG current change (%, negative = inhibition) at 10uM
COC(=O)C1CCN(C(=O)COC(=O)c2cccc(NS(=O)(=O)c3ccccc3)c2)CC1 | -17.6%
O=C(N/N=C/c1ccccn1)c1cccs1 | 41%
COc1ccc2c(c1)c1nc3ccccc3nc1n2CCn1c(=O)oc2ccccc21 | 16.6%
CCOC(=O)C1C(c2ccccc2)C(C(=O)OCC)C1c1ccccc1 (centres unmarked) | 16.1%
COc1cc(C(=O)Nc2ccc3c(c2)CCCN3C(=O)c2ccco2)c([N+](=O)[O-])cc1OC | -27.6%
Cc1ccc(S(=O)(=O)NC(=O)COc2ccc(Cl)cc2Cl)cc1 | 17.3%
Cc1ccc2ncnc(-c3ccccc3)c2c1 | 15.6%
Cc1ccccc1NC(=O)c1sc(Cl)nc1-c1ccccc1 | -8.92%
CCOC(=O)Nc1ccc(NC(=O)OCC)cc1 | 17.4%
O=C(NC1CCCCCCC1)c1ccccc1O | -6.11%
CCc1ccc(C(=O)N2CCCN(C)CC2)s1 | -5.7%
CC(C)CC1c2[nH]c3ccccc3c2CCN1CCCn1cccn1 (centres unmarked) | -63.1%
CC(=O)NC(=S)Nc1ccccc1C(=O)Nc1ccccc1 | 11.2%
COc1ccc2nc(-c3ccccc3)cc(OC)c2c1 | -5.23%
O=C(c1ccc2ccccc2c1)N1CCN(c2ccc([N+](=O)[O-])c(N3CCOCC3)c2)CC1 | -18.8%
O=C(NCc1ccccn1)c1ccc2ccccc2n1 | -34.8%
Cc1ccc(C)c(NC(=O)C2(C)CC3c4ccccc4C2c2ccccc23)c1 (centres unmarked) | 2.55%
CC(C)(C)OC(=O)N1CCC[C@H]1C(=O)N/N=C/c1cccc2nccnc12 | -9.27%
CN(CC(=O)Nc1ccc(F)cc1)C(=O)COC(=O)/C=C/c1ccc(OC(F)F)cc1 | -25.5%
CCOc1ccc(N(CC(=O)N2CCCC2)S(=O)(=O)c2c(C)noc2C)cc1 | -10.7%
O=C(CSc1nc(=O)n(CCCN2CCOCC2)c2c1CCC2)Nc1cccc(F)c1 | -37.4%
CC(C)c1ccc(NC(=O)CSc2nnc(CN3CCOCC3)n2C)cc1 | 15.4%

Compound | hERG current change (%, negative = inhibition) at 10uM
NC(=S)N/N=C/c1c(O)ccc2ccccc12 | 12%
Cc1ccc(C)c(S(=O)(=O)N2CCN(C(=O)Nc3ccccc3)CC2)c1 | -26.1%
CCN1C(=O)[C@H]2[C@@H](c3ccc(-c4ccc(OC)cc4)c(OC)c3)N[C@@](C)(C(=O)OC)[C@H]2C1=O.O=C(O)C(F)(F)F | 14.4%
COc1cccc(Nc2ncc(C(=O)O)c3ccccc23)c1 | -1.48%
COc1ccc(S(=O)(=O)Nc2cc(C(=O)NCCC(C)C)ccc2N2CCOCC2)cc1 | -15.3%
C=CCN(CC=C)S(=O)(=O)c1ccc(C(=O)Nc2sc3c(c2C(N)=O)CCCCC3)cc1 | 7.75%
CSc1ccc(S(=O)(=O)NCC(=O)OCC(=O)N(Cc2ccccc2)C(C)C)cc1[N+](=O)[O-] | -15.2%
N#CC1=C(N)Oc2cc(O)ccc2C1c1ccc(Br)s1 (centres unmarked) | 20.3%
Cc1nn(CC(=O)N2CCc3ccccc3C2)c(C)c1Cl | 6.96%
O=C(O)c1ccccc1NC(=O)c1cc(-c2ccccc2)nc2ccccc12 | 4.95%
CC1CCCC(NC(=O)COC(=O)CCc2ccccc2)C1C (centres unmarked) | 27.1%
O=C(Nc1nc(-c2ccc(F)cc2)cs1)c1ccc(N2C(=O)CCC2=O)cc1 | 7.15%
COc1ccc(S(=O)(=O)Nc2ccc(F)c(Cl)c2)cc1OC | 7.26%
Cc1ccc(Cn2nnnc2CN2CCC(n3nnc4cc(C)ccc43)CC2)cc1 | -65.2%
COc1ccc(CC(=O)Nc2ccc(N(C)C)c3ccccc23)cc1 | 0.703%
COc1cccc(COC(=O)C2CCN(S(=O)(=O)c3ccc(Cl)cc3)CC2)c1OC | -1.49%
O=C1/C(=C/c2cccnc2)Sc2ccccc21 | 4.72%
CN(Cc1ccccn1)C(=O)CC1C(=O)NCCN1Cc1cccc(Oc2ccccc2)c1 (centres unmarked) | 3.2%
CC(C)C(NC(=O)c1c(F)cccc1F)C(=O)NCCc1ccc(S(N)(=O)=O)cc1 (centres unmarked) | 4.56%
COc1ccc(-c2cc(-c3cccs3)c(C#N)c(SCC(=O)NCc3ccccc3)n2)cc1 | 8.07%
O=C(NC(=S)Nc1ccc2[nH]c(=O)[nH]c2c1)c1ccccc1[N+](=O)[O-] | -8.83%
O=C(CNCc1ccco1)Nc1cc(S(=O)(=O)N2CCOCC2)ccc1N1CCCC1 | -14.4%

Compound | hERG current change (%, negative = inhibition) at 10uM
COc1ccc(S(=O)(=O)N2CCOC2CNC(=O)C(=O)NCc2ccccc2Cl)cc1 (centres unmarked) | 0.139%
O=C(NCc1ccncc1)c1cc(C(=O)C2CCCCC2)c[nH]1 | 19.8%
Cc1cccc(NC(=O)C2CCCN(S(=O)(=O)c3ccc4[nH]c(=O)ccc4c3)C2)c1 (centres unmarked) | -3.99%
CCOc1ccc(N=C2SCCCN2C)cc1.I | 7.92%
CCN1C(=O)C(=O)N(CC(=O)Nc2ccccc2OC(F)F)C1=O | 12.1%
O=C(NCc1ccc(F)cc1)C1CCCN(c2nc3ccsc3c(=O)s2)C1 (centres unmarked) | -15.8%
O=C(CNS(=O)(=O)c1ccccc1)NCC(=O)OCc1ccc(C(=O)c2ccccc2)cc1 | -61.6%
Cc1cc(CNC(=O)Cc2c(F)cccc2Cl)nn1C | 1.93%
Cn1cnnc1SCC(=O)Nc1ccc(N2CCCCC2)cc1 | 9%
O=C(O)c1ccccc1Nc1ccc([N+](=O)[O-])cc1C(=O)O | 5.75%
Fc1cc(F)c(F)c(SCCc2ccncc2)c1F | 0.775%
CCN1CCN(C(=O)c2c(-c3c(F)cccc3Cl)noc2C)CC1.Cl | 9.61%
O=S(=O)(c1ccccc1)N(Cc1ccc(Cl)cc1)c1ccncc1 | -6.02%
FC(F)(F)c1ccc(Cl)c(-n2c(-c3cc(C4CC4)[nH]n3)n[nH]c2=S)c1 | 10.2%
O=C(CCC(=O)N1CCN(c2ccc(Cl)c(Cl)c2)CC1)c1ccccc1 | -16%
Cc1c(C(=O)NC2CCCCC2C)oc2ccccc12 (centres unmarked) | 13.4%
COc1ccc(S(=O)(=O)N2CCN(C)CC2)cc1C | 7.28%
COc1ccc(CCn2c(C)nc3ccccc3c2=O)cc1OC | 5.91%
O=C(COC(=O)c1ccc(OC(F)F)cc1)Nc1cccc(S(=O)(=O)NC2=NCCC2)c1 | -11.2%
COC(=O)c1ccc2c(c1)SC1=C(CCCC1=O)N2 | 7.74%
C=CCNC(=O)NC(=O)COC(=O)CCCSc1nc2ccccc2[nH]1 | -0.419%
CCOc1ccc(S(=O)(=O)NCCC(=O)NC2=NCCS2)cc1 | 0.345%

Compound | hERG current change (%, negative = inhibition) at 10uM
COc1ccc2oc(=O)c(C(=O)N3CCN(c4ccccc4C)CC3)cc2c1 | -0.135%
Cc1ccc(C)c(NC(=O)CN(C)C(=O)c2sccc2C)c1 | 16%
O=C1CN(C(=O)COc2ccccc2)CCN1 | -1.73%
CCOC(=O)N1CCN(C(=O)Nc2ccc3nc(C)sc3c2)CC1 | 4.07%
O=c1cc(CN2CCC3(CC2)OCCO3)c2c(ccc3ccccc32)o1 | -0.583%
O=C(Nc1ccc2cn[nH]c2c1)c1ccc(S(=O)(=O)N2CCOCC2)cc1 | -19.7%
Cc1cccc(N(C(=O)c2snc(C(N)=O)c2N)C(C(=O)NCC2CCCO2)c2ccc3ncccc3c2)c1 (centres unmarked) | -19.4%
COc1ccc(CNC2CCCc3ccccc32)cc1OC.O=C(O)C(=O)O (centres unmarked) | -25.3%
COc1ccc(N2C(=O)c3ccccc3NC2c2ccc(NC(C)=O)cc2)c(OC)c1 (centres unmarked) | 18.8%
COc1ccc(O)c(/C=N/n2c(-c3ccco3)csc2=Nc2cccnc2)c1 | 15.9%
O=C(CSc1nc(N2CCOCC2)nc(N2CCOCC2)n1)Nc1cccc(C(F)(F)F)c1 | 16.5%
COc1cc2nc(=S)n3[nH]c(COc4ccccc4C)nc3c2cc1OC | -0.537%
CCOC(=O)c1c(C)[nH]c(C(=O)Nc2ccc(C)c(Cl)c2)c1C | 10.8%
O=C(CNCc1ccc(Cl)cc1)Nc1ccc(C(=O)N2CCCCCC2)cc1.O=C(O)C(=O)O | -2.06%
CCOc1ccccc1NC(=O)CSc1ccc2nnc(-c3cccnc3)n2n1 | -61.9%
COc1ccc2[nH]c(=O)c(C(c3nnnn3CC3CCCO3)N3CCCCC3)cc2c1 (centres unmarked) | 13.6%
CC1(COS(N)(=O)=O)CCCCC1 | 1.76%
CCCN1CCN(CCCNC(=O)Cn2ncc3c4ccccc4n(C)c3c2=O)CC1 | -56.6%
O=C(O)/C=C\C(=O)O.c1ccc(C(OCCN2CCN(c3ncccn3)CC2)c2ccccc2)cc1 | -65.9%
CCOC(=O)CSc1ncnc2c1nnn2-c1ccc(F)cc1 | 1.59%
